Measurements from PubChem BioAssay AID1508624 (National Center for Advancing Translational Sciences (NCATS), 2021).
The whole screen tested about 48,000 compounds, of which about 120 (0.25%) were called active. Inconclusive results (about 4%) are left out. Calls come from the whole dose curve; as a rule, active = well fitted activation curve with a large enough effect; inconclusive = small, poorly fitted or top-dose-only effect, or another doubt; inactive = no such curve, though single readings can be large or run the other way. Some of the results follow.

Assay: Primary qHTS for Identification of Small Molecule Activators of Huntingtin-Antisense Promoter Activity; note: nearly all actives have a fitted effect of over 55% in size
Details: HEK293 HTT-AS promoter firefly luciferase reporter, 24 h; series mostly up to 57.5 µM; activity change, positive = activation: at the top concentration
Procedure, shortened: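 HEK293 cells carrying firefly luciferase reporters were seeded at 2,500 per well in Opti-MEM and cultured for 24 h. They were then treated with compounds at up to 57.5 uM final for 24 h at 37 degrees C before Dual-Glo luminescence readout.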

SMILES | activity change, positive = activation
O=C(/C=C\c1ccc2c(c1)OCO2)NC1CC(=O)N(c2ccc(Cl)cc2)C1 (stereo not drawn) | inactive: -19.9%
COc1ccc(-c2csc3nc(-c4ccccc4C)oc(=O)c23)cc1OC | inactive: -19.2%
Cc1ccc(NC(=O)C2CCN(S(=O)(=O)c3c(C)noc3C)CC2)c(C)c1 | inactive: -7.91%
CC(=O)N1CCOc2cc(S(=O)(=O)NCc3ccc(C)cc3)c(Cl)cc21 | inactive: -16.6%
CCOc1ccccc1NC(=O)c1cc(=O)c2ccc(C)cc2o1 | inactive: -5.99%
COc1ccc(NC(=O)CSc2oc(-c3cccs3)nc2S(=O)(=O)c2ccc(C)cc2)c(OC)c1 | inactive: 1.97%
CCSc1nc(-c2ccccc2OC)nc2c1Cc1c(CO)cnc(C)c1O2 | inactive: -29.7%
CCOC(=O)c1c(C)oc2ncnc(N3CCN(c4ccccc4F)CC3)c12 | inactive: -31.7%
O=C(Cc1cccs1)NC1CC(=O)N(c2cccc(F)c2)C1 (stereo not drawn) | inactive: -5.43%
Cn1c(=O)c2c(-c3ccc(Cl)cc3)n(Cc3ccccc3)cc2n(C)c1=O | inactive: -19.5%
O=C(O)Cn1nnc(-c2ccc(OCc3cccc(C(F)(F)F)c3)cc2)n1 | inactive: 13.8%
COc1cccc(NC(=O)C2CCC(CNS(=O)(=O)c3ccc4c(c3)CC(C)N4C(C)=O)CC2)c1 (stereo not drawn) | inactive: -28.4%
CCOC(=O)c1cc(S(=O)(=O)Nc2ccc(C)cc2Cl)[nH]n1 | inactive: -9.91%
O=C(CSc1nccn1Cc1ccco1)Nc1ccc(F)cc1 | inactive: 33.6%
COc1ccc(CNC(=O)CSc2nc3ccccc3nc2Cc2ccccc2)cc1 | inactive: -28.4%
CCOC(=O)c1[nH]c(C)c(CCC(=O)NCc2ccc(N(C)C)cc2)c1C | inactive: -7.21%
COc1ccc(Cn2c(CCC(=O)NCc3cccc(Cl)c3)nc3cccnc32)cc1 | inactive: -9.81%
COc1cccc(/C=C/c2nc(C#N)c(NCCN(C)C)o2)c1 | inactive: -9.35%
COc1ccc(S(=O)(=O)NCCc2cc3ccc(C)c(C)c3[nH]c2=O)cc1 | inactive: -36.2%
COc1ccc(OC)c(NC(=O)Cn2cnc3ccc(S(=O)(=O)N4CCC(C)CC4)cc3c2=O)c1 | inactive: -30.7%
CN(Cc1ccccc1)C(=O)c1ccc2c(c1)N(Cc1ccccc1F)C(=O)c1ccccc1S2(=O)=O | inactive: -37%
O=C(Nc1cc(-c2nc3ccccc3s2)ccc1Cl)c1cc2ccccc2o1 | inactive: 30.4%
CCCOc1cccc(NC(=O)c2c(-c3ccccc3Cl)noc2C)c1 | inactive: -15.5%
CN(C(=O)CSc1nc2ccc(NC(=O)COc3ccc(Cl)cc3)cc2s1)c1ccccc1 | inactive: -43.6%
O=S(=O)(Nc1ccccc1C(F)(F)F)c1ccc(N2CCCCS2(=O)=O)cc1 | inactive: -23.1%

SMILES | activity change, positive = activation
COc1ccc(Cl)cc1NS(=O)(=O)c1ccc2[nH]c3c(c2c1)CCCC3 | inactive: -34.5%
Cc1cccc(C)c1NC(=O)Cn1c(=O)n(Cc2ccccc2)c(=O)c2c(C)c(C(=O)N(C)C)sc21 | inactive: -23.3%
Cc1cc(C)c2oc(C(=O)Nc3ccc(S(=O)(=O)N4CCCCC4)cc3)cc(=O)c2c1 | inactive: -8.43%
Cc1ccc(Cl)cc1-n1c(=O)cc(N2CCN(c3ccc(F)cc3)CC2)[nH]c1=O | inactive: -32.2%
Cc1ccc(-c2nc3sc(CCNS(=O)(=O)c4cc(F)ccc4F)c(C)n3n2)cc1 | inactive: -12.2%
CC(=O)N(Cc1cccnc1)c1nc2c(F)cc(F)cc2s1 | inactive: -12.3%
COc1cccc(CSc2nc3n(n2)C(CC(C)C)C(C(=O)Nc2ccccc2OC)=C(C)N3)c1 (stereo not drawn) | inactive: -20.2%
CCCCN(CC)CCCNC(=O)Cn1ncc2c3ccccc3n(C)c2c1=O | inactive: -18.1%
CCOc1ccc(S(=O)(=O)N(CC(=O)NCc2ccccc2OC)c2ccccc2)cc1 | inactive: -28.9%
COc1ccc(C(=O)N2CCC(C(=O)Nc3ccc(Cl)cc3)CC2)cc1 | inactive: 4.16%
Cc1cc(=O)n2nc(N(C)CC(=O)NCc3cccc(Br)c3)sc2n1 | inactive: -5.43%
CCOc1ccc(OCC)c(NC(=O)Cn2nc(CC)n3c(cc4sccc43)c2=O)c1 | inactive: -12%
Cc1ccc(/C(=C\CN2CCCC2)c2ccccn2)cc1 | inactive: -9.44%
Cc1ccc(S(=O)(=O)CC(=O)Nc2sc3c(c2C(N)=O)CCCC3)cc1 | inactive: -9.28%
CC(C)CCNC(=O)Nc1ccc2c(c1)N(Cc1ccccc1)C(=O)c1ccccc1S2 | inactive: -30.5%
CCc1ccc(NC(=O)Cc2c(C(=O)O)c(C)cn2C)cc1 | inactive: -9.39%
Cc1ccccc1Nc1c(-c2ccc(Br)o2)nc2ccc(Cl)cn12 | inactive: -23.1%
COc1cc(OC)c(NC(=O)c2cc(C)nc3c2c(C)nn3-c2ccc(C)cc2)cc1Cl | inactive: -6.84%
Cc1ccc(NC(=O)CCN2CCN(CCO)CC2)cc1C | inactive: 7.59%
CCOc1ccc(-c2nn(CC(=O)NC3CCCC3)c3c2cnc2ccc(C)cc23)cc1 | inactive: -1.7%
COc1ccc(CCNC(=O)c2ccc3c(c2)N(Cc2ccc(Cl)cc2)C(=O)c2ccccc2S3)cc1OC | inactive: -27.6%
Cc1ccc(NC(=O)CN2CCSc3ccc(S(=O)(=O)N4CCCC4)cc32)cc1 | inactive: -36.3%
Cc1c(CCNC(=O)c2ccco2)sc2nc(-c3ccc(F)cc3)nn12 | inactive: -10.9%
CCN(Cc1nc(-c2ccc(OC)cc2)oc1C)S(=O)(=O)c1ccc(C)cc1 | inactive: -28.2%
CCOC(=O)Cc1ccc(NC(=O)N2CCC(CN3CCCCCC3)CC2)cc1 | inactive: -5.31%

SMILES | activity change, positive = activation
CCOc1ccccc1Nc1nnc(-c2cc3cc(OC)ccc3oc2=O)s1 | inactive: 4.83%
CCN(CC)c1cc2c(cc1F)c(=O)c(S(=O)(=O)c1ccc(OC)cc1)cn2Cc1ccccc1 | inactive: -29.5%
CC(=O)c1ccc(NC(=O)Cn2c(-n3nc(C)cc3C)nc(C)c(C)c2=O)cc1 | inactive: -11.9%
CCc1ccc(Oc2c(C(F)(F)F)oc3c(CN4CCC(C)CC4)c(O)ccc3c2=O)cc1 | inactive: -8.69%
Oc1ccc([C@@H]2Oc3ccc(O)cc3[C@@H]3CCC[C@@H]32)cc1 | inactive: -75.1%
Cc1cccc(NC(=O)C2CCN(c3nc4ccccc4[nH]3)CC2)c1C | inactive: -11.6%
O=C(Nc1ccc2nc(SCC(=O)N3CCCC3)sc2c1)c1cccc(Br)c1 | inactive: -25.9%
Cc1ccc(C)c(CNC(=O)CCn2cccn2)c1 | inactive: -1.89%
Cc1cc(C)cc(N2C(=O)CSC23C(=O)N(CC(=O)Nc2ccc(F)cc2F)c2ccccc23)c1 (stereo not drawn) | inactive: -17.4%
CCOCCCN1C(=O)c2[nH]nc(-c3ccccc3O)c2C1c1ccc(CC)cc1 (stereo not drawn) | inactive: -34.7%
CCCCc1nn2c(=O)cc(COC(=O)c3ccc(NC(=O)CCc4ccccc4)cc3)nc2s1 | inactive: 6%
CCOC(=O)c1oc2c(c1C)-c1nn(Cc3c(F)cccc3Cl)cc1CC2 | inactive: -20.7%
Cc1nc2ccc(S(=O)(=O)N(CC(=O)Nc3cccc(F)c3)Cc3ccccc3)cc2s1 | inactive: -21.8%
O=C1CC(c2ccccc2)c2c(n3ncnc3[nH]c2=O)N1 (stereo not drawn) | inactive: -6.16%
CC(C)CCn1c(=O)c2sccc2n2c(CCCC(=O)NCCc3ccccc3)nnc12 | inactive: -1.39%
COc1ccccc1C(=O)N1CCC(c2noc(-c3ccc(S(=O)(=O)N4CCCC4)cc3)n2)CC1 | inactive: -41.4%
COc1cccc(CNC(=O)c2oc3c(c2C)-c2nn(Cc4cccc(Cl)c4)cc2CC3)c1OC | inactive: -33.2%
OC[C@H]1O[C@@H](OCCc2ccc(O)cc2)[C@H](O)[C@@H](O)[C@H]1O | inactive: -20.8%
O=C(NCCc1ccc(Cl)cc1)c1ccc(CS(=O)Cc2ccccc2Cl)o1 (stereo not drawn) | inactive: -30.6%
C[C@@H](O)[C@H](N)C(=O)O | inactive: -5.01% [at 25.1 µM, percent change from vehicle, -100% = no light]
COc1ccc(NC(=O)Cn2c(SCc3ccc(F)cc3)nc3cccnc32)cc1OC | inactive: -1.57%
CC(C)N(C)C1CCN(S(=O)(=O)c2ccc3[nH]c(=O)ccc3c2)CC1 | inactive: -5.64%
O=C(Nc1nc2ccccc2s1)c1ccc(S(=O)(=O)N2CCCC2)cc1 | inactive: 12.2%
O=S(=O)(c1ccc2nc(NCc3ccccc3Cl)ccc2c1)N1CCCCC1 | inactive: -23.4%
COc1ccc(CNC(=O)CSc2nc(-c3ccc(OC)c(OC)c3)cc(C(F)(F)F)n2)cc1 | inactive: -29.3%

SMILES | activity change, positive = activation
CC(CNC(=O)c1ccc(CSc2nc3ccncc3n2Cc2ccccc2)cc1)c1ccccc1 (stereo not drawn) | inactive: -24.9%
COc1cc(Cl)c(NS(=O)(=O)c2ccc(-c3cnc(C4CC4)o3)cc2)c(OC)c1 | inactive: -36.5%
CCCCN(C)S(=O)(=O)c1ccc(C(=O)Nc2sc3c(c2C(N)=O)CC(C)(C)NC3(C)C)cc1 | inactive: -10.5%
CCCc1ccc(-c2ccc(C(=O)Oc3ccc(OCC)cc3)cc2)nc1 | inactive: 4.69%
Cc1ccc(CCNC(=O)CS(=O)Cc2nc(-c3ccccc3C)oc2C)cc1 (stereo not drawn) | inactive: -17%
CCN(Cc1ccccc1)C(=O)Cn1c(=O)n(-c2ccc(Cl)cc2)c(=O)c2c(C)c(C(=O)N(C)C)sc21 | inactive: 0.82%
O=C(Cn1cnc2c(oc3ccccc32)c1=O)Nc1ccc(F)cc1F | inactive: -6.95%
O=C(CSc1nc2c(oc3ccccc32)c(=O)n1Cc1ccco1)Nc1ccccc1Cl | inactive: -11.6%
O=C(Cn1ncc2c3ccccc3n(Cc3cccc(Cl)c3)c2c1=O)NCc1cccs1 | inactive: -7.09%
CCCc1ncc(C(=O)O)s1 | inactive: 2.28%
CCc1ccc(OCc2nc(-c3ccc(OC)cc3)no2)c(Br)c1 | inactive: -14.5%
Cc1cccc(CCNC(=O)CCc2c(C)nc3c4c(C)cc(C)nc4nn3c2C)c1 | inactive: -15.7%
COc1ccc(CNC(=O)Cn2ncc3c([nH]c4ccccc43)c2=O)cc1 | inactive: -8.3%
CCc1cccc(C)c1NC(=O)Cn1c(=O)cc(C)c2c(C)nn(-c3cccc(F)c3)c21 | inactive: -16.9%
COc1ccccc1N1CCN(c2cc(C)nc3nc(-c4ccc(C)cc4)nn23)CC1 | inactive: -2.99%
O=C(NCc1ccc(F)cc1)c1ccc(Nc2nc3ccccc3n3nnnc23)cc1 | inactive: 1.08%
Cc1c(C(=O)Nc2ccccc2F)sc2ncnc(N(C)C3CCCCC3)c12 | inactive: -18.8%
CCCC12CN3CC(CCC)(CN(C1)C3c1ccccc1)C2=O (stereo not drawn) | inactive: -5.96%
CCOC(=O)c1cc(S(=O)(=O)N2CCN(c3ccc(C(C)=O)cc3)CC2)[nH]n1 | inactive: -17.4%
CCOC(=O)c1ccc(NC(=O)NCCOCCn2c(=O)oc3ccccc32)cc1 | inactive: -30.9%
CCS(=O)(=O)c1nc(S(=O)(=O)c2ccc(C)cc2)c(NCCCOC)s1 | inactive: -6.63%
Cc1cc2oc3c(c(=O)c2cc1C)C1(C(=O)N(C)c2ccccc21)N(CCO)C3=O (stereo not drawn) | inactive: -8.41%
CCn1c(CNC(=O)c2ccc(OC)cc2)nnc1SCC(=O)Nc1ccc(C)cc1 | inactive: -13.1%
